Self-cleavage data for 167 variants are collected here from the RNAGym collection of RNA variant scans (doi:10.7554/elife.90254).

The labels stand for the following.
B1: LINE1-mini (parent)
chain: GGCAGAGCUCAACACAGCGUGGCAAAGUGGCUGUGGCUAGACUGCC

Read counts are not given, so values of variants with three or more changes are uncertain.

The series covers variants of B1. The series is described as follows: self-cleavage, relative activity (ratio to wild type); higher = more cleavage; in vitro, sequencing; the parent is a self-cleaving ribozyme.
Consider A6G G19U C31G G40C, for which the self-cleavage amounted to 0.06. For the variant A6G C13U G35U, the self-cleavage worked out at 0.19. In the case of A6G C10G C13G G27A G29C, the self-cleavage was 0.02. A6G G21U C23A G40U: the self-cleavage worked out at 0.01. For the variant A6G G17A A41G, the self-cleavage came out at 0.03. With A6G G21U C42U, the self-cleavage amounted to 0.02. As to A6G G7U A12C, the self-cleavage came to 0.01. Next, A6G C31U C37A: 0.13. In the case of A6G G17U G22U C23A, the self-cleavage was 1.9. Next, A6G G36A C42U U43G G44C: 0.07. Next, A6G G7U C10A C13A A14U C15A C23U: 0.03; A6G G7U C13G G19C: 0.03; A6G C10U G21C G40C A41C C42A C46U: 0. Turning to A6G U20C G36C, the self-cleavage is 0.04.

For A6G C8G A12G, the self-cleavage came to 0.03. Next, A6G C10U C18G: 0.03; A6G G21U U32C: 0.05; A6G C18G C23G: 0.07. Next, A6G C8U U9A C37U: 0.06. On to A6G G21C G29A U38A A41U C46A, for which the self-cleavage came to 0.01. For the variant A6G G7A U38A, the self-cleavage worked out at 0.03. A6G G17C G35U: the self-cleavage was found to be 0.05. With A6G G7U U28A C45G, the self-cleavage is 0.01.

For A6U A11G C13U A14U G36U C42A, the self-cleavage turned out to be 0.06. As to A6G U32G U34A, the self-cleavage stood at 0.03.

A6U A12C G29C C31A: the self-cleavage was determined as 0.01. The same measure for A6G U28C U43A: 0.04; for A6U A12G G17C G22U A39C: 0.04. Regarding A6G C37U A41G, the self-cleavage amounted to 0.03. As for A6G G17C G21U G35C G44C, the self-cleavage was 0.02. Turning to A6G G17U U20A G27C, the self-cleavage stood at 0.05. The same measure for A6G C13U U34A G40A C46A: 0.06; for A6U A12U C13U C23G: 0.01; for A6U A11C G22A G30A C45U: 0.04. Next, A6G G17C G22U C46U: 0.11. As to A6G U28G G36A U43G, the self-cleavage came to 0. Take A6G G7U G17A C37G: the self-cleavage stood at 0.01. In the case of A6G U38C C46G, the self-cleavage was 0.04. On to A6G U9A C31G, for which the self-cleavage was found to be 0.02. Consider A6G C10G U34A C42G, for which the self-cleavage turned out to be 0.01. Regarding A6G C23A G30A C31G, the self-cleavage came out at 0.23. With A6U A12C G27C, the self-cleavage was found to be 0. Next, A6G G7U C42U: 0.07; A6G U20A G30C C31U A41C: 0.02; A6G C13U C23A U28A G44A C46A: 0.23. With A6G G30A G33A, the self-cleavage was determined as 0.03. A6G C13G C15G: the self-cleavage came out at 0.01. As to A6G C8A U20A G33U, the self-cleavage amounted to 0.07. In the case of A6G C18U C23A U32A, the self-cleavage is 0.05. With A6U A11C C18A U28G G40C, the self-cleavage is 0.01. Take A6G U9A U43G C46U: the self-cleavage worked out at 0.43. Regarding A6G U20C G22U A25U G30U C37A C46U, the self-cleavage came out at 0.02. For A6G G22U C23A, the self-cleavage was 0.09. In the case of A6G G7U G22C G35A, the self-cleavage turned out to be 0.05.

With A6G C18G A25U G36A, the self-cleavage amounted to 0.02.

Turning to A6U A11C A14G C42G, the self-cleavage was determined as 0.01. For A6G C13U C45U, the self-cleavage came out at 0.03. As to A6G G7U C10G U20G G27U G44C, the self-cleavage stood at 0.01.

In the case of A6G U9C A26G G36A, the self-cleavage came out at 0.01. On to A6U A11C C37G, for which the self-cleavage came to 0.01. Turning to A6G G7C A12G, the self-cleavage is 0.01.

Take A6G C13U G17C A26U: the self-cleavage worked out at 0.07. A6G U28A G29A U34A: the self-cleavage turned out to be 0.11. As for A6G G7U C8G, the self-cleavage came to 0.11. Regarding A6G C13A C15G A24G, the self-cleavage was found to be 0.09.

In the case of A6G G17C G19A C31A A39U, the self-cleavage was found to be 0.01. In the case of A6G G7C C8U G30C C37U A39U C46A, the self-cleavage was 0.11. Consider A6U A12U A16G C18U A25U A26U G27U G35A, for which the self-cleavage came out at 0.02. Take A6G G35A A41U C42A: the self-cleavage was found to be 0.02. The same measure for A6G C8A C18U G21U: 0.18. Next, A6G U20A A26C U38A: 0.01. Next, A6G C15A C42A: 0.03.

Consider A6U A11U G17C C46U, for which the self-cleavage worked out at 0.05. As for A6G U9C G36A, the self-cleavage was found to be 0.47. Consider A6G G7A A16U C23G U28C G36U, for which the self-cleavage was 0.06. For the variant A6G G19A U32A A39G, the self-cleavage was 0.01.

Take A6G G17U U20C C23U G27A G30A: the self-cleavage is 0.14. Turning to A6G G22U G44C, the self-cleavage amounted to 0.04. As to A6G C15A G22A G27A C37A, the self-cleavage stood at 0.02.

As to A6G G27A G35U, the self-cleavage came out at 0.02. Take A6G U28A G36A: the self-cleavage came out at 0.03. Take A6G G7A C15U C23A G27A G33U G35C A41G: the self-cleavage worked out at 0.52. The same measure for A6G U20A G21A U32G G33C U38A: 0. A6G C42U C46U: the self-cleavage came out at 0.05. On to A6G G17A G21U C23U C31U C37U, for which the self-cleavage came out at 0.04.

For A6G A26C G44U, the self-cleavage came to 0.07. The same measure for A6G G19C G36C: 0.21; for A6G C8G G17C U20C G44U: 0.01. As to A6G C10A C18G, the self-cleavage came to 0.03.

In the case of A6G A41U C45G, the self-cleavage worked out at 0.09. Next, A6G C15A C45U: 0.08; A6G C18A G19C: 0.03. As to A6G C10G A41U, the self-cleavage turned out to be 0.01. Take A6G U34G A41U U43C: the self-cleavage is 0.02. Consider A6G A39G G40A, for which the self-cleavage worked out at 0.01. For A6G C13U A14U, the self-cleavage was 0.03. With A6G C13U G40A, the self-cleavage was 0.28. A6G G22U U38C: the self-cleavage was 0.04. On to A6G G22A U32A, for which the self-cleavage is 0. Next, A6G C23U A24C G40C: 0.08; A6G G7A C8G C15A: 0.03. Next, A6G C15U A41G: 0.05; A6G G7U G36C: 0.03; A6G U28A G33U G36A: 0.03. For A6G G7A A14G C31U, the self-cleavage worked out at 0.05.

Regarding A6U A11C C18G G21A U43C C45U C46G, the self-cleavage stood at 0.02. As for A6G C15A G36U, the self-cleavage stood at 0.04. Turning to A6G C15G C18G C46G, the self-cleavage was 0.03. The same measure for A6G U9G C13G: 0.23; for A6G C13A C18A C31G G33C: 0.02. With A6G U20A G36U C37G A39G, the self-cleavage was determined as 0.01. With A6G C13U A16G G21A U34A C42A, the self-cleavage was determined as 0.01. As for A6G G7C G36U C42G, the self-cleavage was found to be 0.03. Turning to A6G G22U A39C G40C, the self-cleavage was determined as 0.12. As for A6G G19C C23U U28C U38C C46A, the self-cleavage came to 0.03. As to A6G G35U C42G, the self-cleavage worked out at 0.01. A6G C13U A14C C31U: the self-cleavage amounted to 0.08.

On to A6G G7U A11G C18G, for which the self-cleavage amounted to 0.04. Next, A6U A12U C37G G44C C45A: 0.03; A6G C23G G27A G36C: 0.03. For the variant A6G C31A C37A, the self-cleavage worked out at 0.02. Turning to A6G U20C A26C G27A G29U, the self-cleavage stood at 0.03.

With A6U A11G A14U A41C, the self-cleavage amounted to 0.01.

Turning to A6G U20G G40C, the self-cleavage amounted to 0. In the case of A6G C8G G17A G27A G29C U38C, the self-cleavage was 0.03. With A6G G19U A24C C31U, the self-cleavage stood at 0.06. On to A6G U34C A41U, for which the self-cleavage worked out at 0.25. Take A6G C13A G19A G27C: the self-cleavage came to 0.01. With A6G G22C C23U G27U, the self-cleavage was 0.05.

As to A6U A12U A39U, the self-cleavage was found to be 0.12. Turning to A6G C10A A11G A26G, the self-cleavage is 0.02.

A6G C13U U34G: the self-cleavage came out at 0.05. The same measure for A6G U28C U34G G36U: 0.02. Consider A6G G7C G36U G44U, for which the self-cleavage came out at 0.08. Take A6U A11C A24G G33U: the self-cleavage amounted to 0. Regarding A6G C10U C18A G21U G35A U43A, the self-cleavage was determined as 0.02. A6G U9A C18A C23U C31U G33U C45U: the self-cleavage came out at 0.09. Consider A6G C8G A12U A14G G17A C23A G44U, for which the self-cleavage is 0.04. The same measure for A6G G7C C10A C13U A14U A16G A41C: 0.01; for A6G C13A U28A U38G: 0.01. In the case of A6G G7A C10G A14U G27U, the self-cleavage is 0.02.

In the case of A6G U9A C10A A14C G17A G40U, the self-cleavage stood at 0.01.

Regarding A6G G30U C45A, the self-cleavage is 0.02. In the case of A6U A12C G40C A41C, the self-cleavage worked out at 0.09. Regarding A6G C8A A12G A14G A26C, the self-cleavage was 0.03. Next, A6G C10A U20C U43C G44A: 0.01; A6G C23U U28G: 0.09. Next, A6G G7U C23U G30A: 0.08; A6G C10U U20G A26G U32A C45U: 0.03; A6G C15G C18A: 0.04. The same measure for A6G G17A U34A C37U: 0.01; for A6G C8U A11C U20C G21U U38C: 0.

Turning to A6G C37G C46A, the self-cleavage came to 0.01.

With A6G C8G C46U, the self-cleavage was found to be 0.19. As for A6G G21U G29U, the self-cleavage is 0.

On to A6G C8U G22U A41G C42G, for which the self-cleavage came out at 0.16. Consider A6G A26G U34A G40A, for which the self-cleavage turned out to be 0.06.

In the case of A6G G7A C10A C23G, the self-cleavage worked out at 0.02. As to A6G C13A G35C, the self-cleavage amounted to 0. Next, A6G C15A C18A A26U: 0.04; A6G C10A C23U A26U U32C: 0.01; A6G G21U A24C G33C: 0.02. Turning to A6G U9A G17U C37U, the self-cleavage came to 0.05. Consider A6G C10A A14C G30U, for which the self-cleavage worked out at 0.02. On to A6G U9A G27U G30C C37U, for which the self-cleavage is 0.03. Turning to A6G C8U G27U U32A, the self-cleavage is 0.15.

Turning to A6G G7C C13U C23A G36U A39U, the self-cleavage worked out at 0.08.
